From the supplement of paper PMC3334620
In all, about 33,000 sequences were measured (“E-score (-0.5 to 0.5)”: median about -0.035, highest 2% from about 0.34 on). The list shows a part of the results.

These sequences were tested against T1, Mot3 (UniProt P54785) (assay: PBM E-score (8-mer binding enrichment) (E-score (-0.5 to 0.5)); higher = stronger / more preferred TF binding; most listed sequences are background and not binding sites). Conditions: protein concentration: 200 nM; construct: GST-full length.
T1 sequence: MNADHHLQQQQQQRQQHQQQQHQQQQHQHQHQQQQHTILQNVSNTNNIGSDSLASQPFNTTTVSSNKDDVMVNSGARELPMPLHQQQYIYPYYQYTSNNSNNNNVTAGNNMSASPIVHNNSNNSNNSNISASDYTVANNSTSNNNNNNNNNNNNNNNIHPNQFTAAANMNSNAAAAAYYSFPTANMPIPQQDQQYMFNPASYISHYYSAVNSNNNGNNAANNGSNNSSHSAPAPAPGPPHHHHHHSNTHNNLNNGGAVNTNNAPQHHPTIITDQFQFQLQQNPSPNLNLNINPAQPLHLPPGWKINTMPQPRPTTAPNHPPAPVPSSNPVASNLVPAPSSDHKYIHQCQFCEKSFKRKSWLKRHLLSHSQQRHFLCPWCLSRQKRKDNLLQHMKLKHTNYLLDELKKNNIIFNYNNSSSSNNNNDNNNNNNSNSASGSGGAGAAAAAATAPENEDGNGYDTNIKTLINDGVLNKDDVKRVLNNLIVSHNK
Procedure, shortened: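 Full-length yeast transcription factors or their DNA-binding domains, GST-tagged and expressed with PURExpress, were applied at about 100-200 nM to universal all-10-mer Agilent arrays. These arrays had been made double-stranded by primer extension on fresh or once-stripped slides. Detection used fluorescent anti-GST, normalisation used masliner, and E-scores for ungapped eight-base words pooled with reverse complements came from the Universal PBM Analysis Suite.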

| Sequence | PBM E-score |
| --- | --- |
| CCATTGCA | 0.0255 |
| ATTTGGCA | 0.0539 |
| GAGACTCA | -0.251 |
| CCACCGCC | -0.172 |
| GCCTGTTA | 0.35 |
| AGATGAAG | -0.143 |
| GGCAACCA | 0.162 |
| ATTTCTTC | -0.0467 |
| AGGGGCTG | -0.126 |
| ACTCATGG | -0.0553 |
| GCAAATCC | -0.0381 |
| AGCATCCA | -0.282 |
| ATGGTTAG | 0.084 |
| CTCCACAC | -0.075 |
| CTATCCTA | 0.113 |
| CGGTAATC | -0.149 |
| GCCGCCAC | -0.318 |
| AACCGGAG | -0.148 |
| CTGCAAAG | -0.0192 |
| GGGGAGCA | -0.194 |
| CTGCCCAG | -0.273 |
| CCAGTTAG | -0.105 |
| CTGCTTAA | -0.0304 |
| GGCTAGAC | -0.167 |
| CGGCAACG | -0.0123 |

| Sequence | PBM E-score |
| --- | --- |
| CTGAAGTA | -0.0784 |
| ACAACGTG | 0.114 |
| CAGCTAAG | -0.268 |
| GCAGAGGA | -0.193 |
| ACAGTGGC | -0.105 |
| GGGCTGGA | -0.274 |
| CGTTCAAG | -0.00663 |
| TCCCATAA | -0.133 |
| AACACAGT | 0.189 |
| CAGTAACG | 0.0227 |
| TACCTCGA | -0.151 |
| AGGTGCTC | -0.0148 |
| ACAGTTGC | 0.0235 |
| ATTTACCA | 0.129 |
| CCGCTTCC | -0.263 |
| CCACTTAA | 0.0289 |
| AGCCCCAC | -0.334 |
| AAACTCGC | -0.0638 |
| AAGAGATC | -0.285 |
| CATCTACG | 0.0929 |
| CGGAGCTA | -0.11 |
| AGGTGGCA | -0.15 |
| TATGCCAA | -0.023 |
| CCGGTGAA | -0.171 |
| AGTGGAGC | 0.0294 |

| Sequence | PBM E-score |
| --- | --- |
| ATAAATCA | 0.126 |
| GCATTAGA | -0.0607 |
| CCCTGCAC | -0.0117 |
| GCGCCGAC | -0.0194 |
| AACTTGAC | 0.143 |
| CTACGGAA | 0.24 |
| GATACCGA | -0.101 |
| GAGAGTAC | -0.0493 |
| GGATACCA | -0.254 |
| AAAGCCTC | -0.219 |
| AAGGTCGT | -0.0904 |
| AGGGAGTC | -0.213 |
| CCCAACGG | -0.114 |
| AACCGCAT | -0.0444 |
| ATCGCGAC | -0.319 |
| AGTTCGCA | -0.202 |
| CGAAGGCG | 0.193 |
| GTGTCATA | 0.28 |
| ATCTAACC | 0.00779 |
| AGAGGACA | -0.136 |
| ATGACAAA | 0.0395 |
| CGAGCTAG | -0.0166 |
| CGTTTAAC | 0.269 |
| ACTAAACT | 0.0611 |
| AATTGGCT | -0.126 |

| Sequence | PBM E-score |
| --- | --- |
| ACCCGTTC | -0.0969 |
| AAGCCACC | -0.228 |
| CCTGAGAG | -0.194 |
| ATAGTTAA | -0.018 |
| CGCCGGTC | -0.33 |
| CCGAGCCC | -0.481 |
| CGAAGCGC | -0.16 |
| TACTCTCA | 0.0866 |
| GACAGCTC | -0.162 |
| GAAAGGAC | -0.118 |
| GTTGAGCA | 0.00541 |
| GATTGTGA | -0.122 |
| CGAAAGGC | 0.0515 |
| GCGGCAGA | -0.273 |
| GACAGGCC | -0.139 |
| TGGTCTAA | -0.173 |
| CTACTGTA | 0.171 |
| CCCTACCA | 0.0295 |
| AAAATTGA | 0.147 |
| AGTTTGCC | 0.289 |
| AAATAGGA | 0.135 |
| AGAGGGTA | -0.167 |
| AACTGCTG | -0.174 |
| CGCAGCCG | -0.217 |
| CCGTTCTC | -0.133 |

| Sequence | PBM E-score |
| --- | --- |
| CGCTCAAA | -0.108 |
| CACTGACG | -0.206 |
| GATAATTA | 0.179 |
| CAGAACTA | -0.283 |
| CCCAACCC | -0.0962 |
| ACGCCACT | -0.132 |
| TAAGCGGA | -0.212 |
| CGTTAGCC | -0.189 |
| ATCCAATA | 0.037 |
| AGCTACCG | -0.31 |
| AGTGTACG | 0.0928 |
| TATAAACA | 0.275 |
| CGCTGACG | -0.191 |
| TATGTGCA | 0.0728 |
| GTACCCTA | 0.0479 |
| AACGTCTT | 0.0441 |
| GCATCAGA | 0.104 |
| ACGAAACA | 0.0944 |
| AAATTAAA | 0.185 |
| ACTGGCCA | -0.156 |
| GTCTCCGA | -0.114 |
| AATCTGCC | 0.0326 |
| GTCTGCCA | -0.121 |
| CCCCGGAG | -0.242 |
| GTCACAAA | 0.0523 |

| Sequence | PBM E-score |
| --- | --- |
| AATTCTCT | -0.106 |
| AAGGCGCT | 0.353 |
| CGCTGCAA | -0.00707 |
| CAGTTTGA | -0.133 |
| ACACCTGT | 0.193 |
| GCCGCTCC | -0.323 |
| CCTCAATC | -0.0484 |
| ACATAATA | 0.294 |
| GTGGGTGA | -0.227 |
| GAAACCGA | -0.249 |
| ACTGATGA | -0.00185 |
| GAATAGAC | 0.00211 |
| CCAAAAGG | 0.0302 |
| GTTGATCA | 0.0347 |
| AGCGTGTA | 0.406 |
| ACAGTGTG | 0.0607 |
| AATCTAGG | 0.111 |
| CTGATCAA | -0.217 |
| CATCGGAG | -0.0997 |
| CCAGCAGA | -0.212 |
| CTGCAAGC | -0.113 |
| AATTCAGA | -0.0646 |
| CGACAAAC | -0.164 |
| CAGATCTG | -0.0505 |
| AATTAAGT | 0.143 |

| Sequence | PBM E-score |
| --- | --- |
| GGCACGAA | 0.271 |
| ACTGGAGC | -0.149 |
| CGTCGTAC | 0.0607 |
| CAAAAGCG | -0.0671 |
| ACAAAACT | 0.135 |
| GGAATTCA | 0.0511 |
| CAATGCTG | 0.0016 |
| GGAGTACA | 0.0176 |
| CTTGGCAA | -0.145 |
| CACGGGGG | -0.0235 |
| TGACCTCA | -0.244 |
| CGAAAGCG | -0.168 |
| AGTTGGTA | 0.0935 |
| GCGACCCC | 0.00965 |
| ACTTGGCG | 0.00484 |
| AACTCAAG | -0.0609 |
| ACCAGAGC | -0.166 |
| AAGAATAG | -0.00364 |
| AATGGAAC | -0.00324 |
| ATCTCATG | 0.118 |
| CCTTGTCG | 0.0061 |
| GGGACATA | -0.153 |
